SMILES strings stand for the structures. “And” between values parts separate entries of the source, which are not always exact repeats. Equal values may be shown once. Among all 48,000 compounds or so, about 1,200 (2.5%) were called active. Inconclusive results (about 2%) are left out.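 How the source made its calls: active means activation of at least 60% and not above a set upper limit (about 1 call in 100 departs from these limits); inconclusive means activation of 40% to 60%, or above that upper limit; inactive means activation under 40%.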 The list shows a part of the results.

This assay deals with Probable G-protein coupled receptor 32 (Homo sapiens) (UniProt O75388). The assay can be described thus: qHTS for Agonists of Human Resolvin D1 Receptor DRV1. To be noted: CHO-K1 GPR32 beta-arrestin PathHunter luminescence, 90 min; at 76.9 µM; active compounds read high; zero percent set by DMSO-only wells. The source says:
Endogenous resolution of inflammation is known to be transduced through various GPCRs and their natural mediators of lipid nature. Resolvin D1 (RvD1) is one of the active players in resolution of acute inflammation through regulation of anti-inflammatory pathways; it is known to enhance phagocytosis of human macrophages, limits neutrophils infiltration, etc. […] The search for GPR32-activating small molecules with anti-inflammatory effects similar to its natural omega-3 derivative ligand in order to use them as research tools for further studies of inflammation and its resolution was the goal of this screening project. For primary screening assay, we used CHO-K1 GPR32 beta-arrestin cell line (DiscoveRx, #93-0321C2A) and the PathHunter(R) beta-Arrestin Assay (DiscoveRx) which measures recruitment of beta-arrestin to the GPR32 and generates chemiluminescent signal. These engineered cells stably transfected with GPR32 co-express GPR32-fused small 42-amino acid fragment of beta-Gal called ProLinktrade mark, and […] -tagged beta-Arrestin fusion protein. When GPR32 is activated by a ligand, it stimulates binding of beta -Arrestin to ProLink-tagged GPR32, and two parts of beta-Gal complement forming a functional enzyme. Upon substrate (PathHunter(R) Detection reagent) addition, beta-Gal hydrolyzes it and generates a chemiluminescent signal.
The cells were thawed and plated in thawing media containing F-12 HAM (Invitrogen, #11765-054), 10% FBS (Invitrogen, #10082), 1x Glutamine, and 1x Pen/Strep onto the 175-mm flask for 24 hours. Then, thawing media was replaced with Growth media which contains 800microg/mL Geneticin (Invitrogen, #10131) and 300microg/mL Hygromycin B (Invitrogen, #10687) in addition to described above. For the assay, the cells were harvested at ~80% confluent stage with Cell Dissociation buffer (Gibco, #13151), and seeded at 2,500 cells/ 3microL/well in assay media (PathHunter(R) Cell Plating Reagent, DiscoverX, #93-0563R1B) using MultiDrop Combi dispenser (Thermo Scientific, Logan, UT) onto white solid bottom tissue culture-treated 1536-well plates (Greiner # 789173-F) and allowed to attach overnight at 37 degrees C, 95% humidity, 5% CO2, . Next, 23nL/well of compound solutions in DMSO were added with a Pin Tool (Kalypsis, San Diego, CA) to the assay plates. As the basal control (EC0), 23 nL/well of DMSO was used on each plate. The cells were incubated in the presence of compounds or DMSO for 90 minutes at 37 degrees C, 5% CO2. Subsequently, 1.5microL/well of PathHunter(R) Detection Reagent prepared per the manufacturer's instructions was added to the assay plates with BioRAPTR FRDtrade mark dispenser (Beckman Coulter, San Francisco, CA) and incubated for 1 hour at ambient temperature prior to the measurement of the luminescent signal on ViewLux(R) uHTS Microplate Imager (Perkin Elmer, Waltham, MA).
Background: qHTS replaces the single test concentration by a dilution series.
On to `CCCN1CCc2cc(O)cc3c2[C@H]1Cc1ccc(O)c(O)c1-3`, for which the activation was inactive: 20.9%.

As for `CN1C(=O)CN=C(c2ccccc2)c2cc([N+](=O)[O-])ccc21`, the activation was inactive: -4.68%. Then `Cc1ccc(-n2c(/C=C\c3ccc(F)c(F)c3)nc3ccccc3c2=O)c(C)c1`, with inactive: 20.2%; and `C#CCN[C@H](C)Cc1ccccc1`, with inactive: 4.04%. For `CCCN(CCC)[C@@H]1CCc2cccc(O)c2C1` the value was inactive: 3.55%; for `CN1C(=O)NC(=O)C(C)(C2=CCCCC2)C1=O` (stereo not drawn), inactive: 12.9%.

On to `CC(CC(C(N)=O)(c1ccccc1)c1ccccc1)N(C)C` (stereo not drawn), for which the activation is inactive: 11.8%. For `Cc1ccccc1-c1nn2c(=O)cc(CN3CCN(C(=O)COc4ccccc4Cl)CC3)nc2s1` the value was inactive: 35.2%. For `NCc1cc(=O)[nH]o1` the value was inactive: 10.2%. Then `COC(=O)c1cncn1C(C)c1ccccc1` (stereo not drawn), with inactive: 4.14%; and `C[C@H]1C(=O)O[C@@H]2CCN3CC=C(COC(=O)[C@](C)(O)[C@]1(C)O)[C@H]23`, with inactive: -4.84%.

Regarding `Cc1cccc(OCC(=O)N2CCN(Cc3cc(=O)n4nc(-c5ccccc5Cl)sc4n3)CC2)c1`, the activation was inactive: -6.01%.

On to `O=[N+]([O-])/N=C1\NCCN1Cc1ccc(Cl)nc1`, for which the activation is inactive: -10.2%. For the molecule `CC(=O)OCC1=C(C(=O)O)N2C(=O)[C@@H](N)[C@H]2SC1`, the activation was inactive: -5.99%. Take `CN(C)C(=S)SSC(=S)N(C)C`: the activation was inactive: -2.07%. Consider `Cc1ccc(OCC(=O)N2CCN(Cc3ccc(F)cc3)CC2)cc1`, for which the activation was inactive: -14.5%. For `Cc1ccc(C(C)(C)C)c(OCC(=O)Nc2ccc(Cl)cc2C(=O)c2ccccc2)c1` the value was inactive: -2.1%. `COc1cccc(-n2c(/C=C\c3ccc(Cl)cc3)nc3ccccc3c2=O)c1`: the activation is inactive: -19.9%.

Consider `c1cnc2c(c1)ncn2C1CCNCC1`, for which the activation is inactive: -6.11%. Then `CC(C)(C)NCC(O)c1ccccc1Cl` (stereo not drawn), with inactive: -6.05% and inactive: -6.61%. Then `CC1(C(=O)O)C2CCC(O2)C1(C)C(=O)O` (stereo not drawn), with inactive: -27.6%. Then `Oc1ccc([C@H]2CNCc3c2ccc(O)c3O)cc1O`, with inactive: -6.2%; and `O=C(COc1ccc(Br)cc1)Nc1ccc(Cl)cc1C(=O)c1ccccc1`, with inactive: -0.281%.

With `C#C[C@]1(O)C=C[C@H]2[C@@H]3CCC4=CC(=O)CC[C@@H]4[C@H]3CC[C@@]21CC`, the activation is inactive: 27.1%. For `Cc1cc(C)cc(NC(=O)CN2C(=O)CN=C(c3ccccc3)c3cc(Cl)ccc32)c1` the value was inactive: -31.3%. In the case of `Sc1ccccc1Cl`, the activation was inactive: -20.5%. For the molecule `CCN(CC)C(=O)[C@@H]1C=C2c3cccc4[nH]cc(c34)C[C@H]2N(C)C1`, the activation was inactive: -25.3%. Take `O=c1c2ccccc2nc(/C=C/c2cccc3ccccc23)n1-c1ccc(Cl)cc1`: the activation was inactive: -8.32%.

Take `C1CCC(NC2CCCCC2)CC1`: the activation was inactive: 8.73%. Then `CCC1(c2cccc(O)c2)CCCCN(C)C1` (stereo not drawn), with inactive: 8.78%; and `CS(=N)(=O)CC[C@H](N)C(=O)O` (stereo partly drawn), with inactive: -9.55%. As to `C[C@@H]1CC[C@H]2[C@@H](C)C(=O)O[C@@H]3O[C@@]4(C)CC[C@@H]1[C@]32OO4`, the activation is inactive: 14.6%. As for `COc1cc(C[C@@H](C)N)c(OC)cc1Br`, the activation is inactive: -1.05%. Then `CC(C)Oc1cccc(NC(=O)c2ccccc2C(F)(F)F)c1`, with inactive: 36.4%. In the case of `CCC12CN3CC(CC)(CN(C1)C3c1c(C)[nH]c(=O)[nH]c1=O)C2=O` (stereo not drawn), the activation was inactive: -2.18%. In the case of `COc1cc(OC)cc(C(=O)Nc2ccc(Cl)cc2C(=O)c2ccccc2Cl)c1`, the activation was inactive: -6.45%. Then `O=C(Nc1ccc(Br)cc1C(=O)c1ccccc1Cl)c1ccc(Br)cc1`, with inactive: 6.62%; and `NCCc1c[nH]c2ccc(O)cc12`, with inactive: -1.25%. Turning to `CCN(C(C)=O)c1cccc(-c2ccnc3c(C#N)cnn23)c1`, the activation is inactive: -8.94%. For `Cc1ccccc1-c1nc(CN2C(=O)CN=C(c3ccccc3)c3ccccc32)c(C)o1`, the activation was inactive: -20.3%. Consider `COc1ccccc1-c1nn2c(=O)cc(CN3CCN(C(=O)COc4ccccc4Cl)CC3)nc2s1`, for which the activation was inactive: -10.9%. Then `CCc1ccc(-n2nc(C)c3c2NC(=O)CSC3c2ccc(C(=O)OC)cc2)cc1` (stereo not drawn), with inactive: -0.0879%. As for `O=[N+]([O-])c1ccc([As](=O)(O)O)cc1`, the activation is inactive: 7.74%. Take `CC[N+](CC)(CC)CC`: the activation was inactive: 8.63% and inactive: -1.07%. Then `CCOCCOC(C)=O`, with inactive: 6.37%; and `COc1cc2[nH]c(=O)n(-c3ccc(C)cc3)c(=O)c2cc1OC`, with inactive: -10.6%; and `CCC(COC(=O)c1cc(OC)c(OC)c(OC)c1)(c1ccccc1)N(C)C` (stereo not drawn), with active: 97.2%.

For the molecule `CCCN(CCC)CCc1ccc(O)c(O)c1`, the activation is inactive: -11.2%.

Regarding `Cc1ccc2nc(NC(=O)c3cccn(Cc4ccccc4F)c3=O)sc2c1`, the activation is inactive: 44.6%. For `Cc1ccc2c(=O)n(-c3cccc(Cl)c3)c(=O)[nH]c2c1` the value was inactive: -31.2%.

Turning to `COc1ccc2c(c1)/C(=C/c1cnc[nH]1)C(=O)N2`, the activation was inactive: -10.4%.

For `Ic1ccccc1CNC1C2CCN(CC2)C1C(c1ccccc1)c1ccccc1` (stereo not drawn), the activation is inactive: 31.3%. With `O=C1c2ccccc2C(=O)c2ccccc21`, the activation was inactive: -17.9%. For `Nc1ccccc1` the value was inactive: -0.642%.

With `O=C1CC(c2ccc(C(F)(F)F)cc2)c2c(c3ccccc3oc2=O)O1` (stereo not drawn), the activation was inactive: 6.27%. With `Cc1cccc(Cn2cccc(C(=O)Nc3nnc(C)s3)c2=O)c1`, the activation is inactive: 9.41%. For `Cc1c(Cl)c(=O)oc2cc(OP(=O)(OCCCl)OCCCl)ccc12` the value was inactive: -1.47%. For `O=C(Nc1ccc2c(c1)OCCO2)c1cccn(Cc2ccccc2)c1=O` the value was inactive: -0.395%; for `CC[N+]1(CCOC(=O)C(O)(c2ccccc2)c2ccccc2)CCCCC1`, inactive: -7.19%; for `C[N+]1(C)[C@@H]2CC[C@H]1CC(OC(=O)C(CO)c1ccccc1)C2` (stereo partly drawn), inactive: 17%. As to `Cc1ccc(-c2nc(CN3C(=O)CN=C(c4ccccc4Cl)c4cc(Cl)ccc43)c(C)o2)cc1`, the activation was inactive: -26.8%. `Clc1ccc(C(OCCN2CCCCC2)c2ccccc2)cc1` (stereo not drawn): the activation was inactive: 37.6%. For `CCCSP(=O)(OCC)SCCC`, the activation was inactive: 18.9%.

With `COC(=O)c1ccccc1NC(=O)c1cccn(Cc2cccc(Cl)c2)c1=O`, the activation is inactive: -2.83%. With `NCCc1c[nH]c2ccccc12`, the activation is inactive: 6.46%. Take `CCO/N=C(\CC)C1=C(O)CC(c2c(C)cc(C)cc2C)CC1=O` (stereo not drawn): the activation is inactive: 28.8%. Then `CCc1ccc(C2CCNCC2)cc1`, with inactive: 2.89%; and `CN1C2CCC1CC(OC(c1ccccc1)c1ccccc1N)C2` (stereo not drawn), with inactive: 4.53%.

In the case of `Cc1cccc(C)c1NC1=NCCCS1`, the activation was inactive: 3.17% and inactive: 2.45%. For `O=C(Nc1ccccc1)N(Cc1ccc2c(c1)OCO2)C1CCN(Cc2ccccc2)CC1` the value was inactive: -6.13%; for `Nc1ccc(N)cc1`, inactive: -65.2%; for `O=C(Nc1ccon1)c1cccn(Cc2cccc([N+](=O)[O-])c2)c1=O`, inactive: -18.1%. In the case of `Clc1ccc(N2CC3CCC(C2)N3)nn1`, the activation is inactive: 3.77%. On to `O=C(Nc1ccc2c(c1)OCO2)c1cccn(Cc2ccccc2)c1=O`, for which the activation was inactive: 49%.

Consider `CCOC(=O)C1(c2ccccc2)CCN(CCc2ccc(N)cc2)CC1`, for which the activation is inactive: 5.2%. Consider `CCNC(=O)[C@H]1O[C@@H](n2cnc3c(N)ncnc32)[C@H](O)[C@@H]1O`, for which the activation is inactive: 3.66%. Take `CC(=O)OCC1=C(C(=O)O)N2C(=O)[C@@H](NC(=O)CCC[C@@H](N)C(=O)O)[C@H]2SC1`: the activation was inactive: 10.3%. Then `CN1C(=O)COc2c(C(=O)NC3CN4CCC3CC4)cc(Cl)cc21` (stereo not drawn), with inactive: -2.65%. For `O=C(Nc1ccc(F)c(Cl)c1)N(Cc1ccc2c(c1)OCO2)C1CCN(Cc2ccccc2)CC1` the value was inactive: -14.4%; for `Cc1ccc(S(=O)(=O)N[C@@H](CCCCN)C(=O)CCl)cc1`, inactive: -17.2% and inactive: -21.8%; for `CCCN1CCC[C@@H](c2cccc(O)c2)C1`, inactive: -0.124%.

Regarding `O=C1CN=C(c2ccccc2)c2cc([N+](=O)[O-])ccc2N1`, the activation is inactive: -17.7%. Then `CCOc1ccc2nc(NC(=O)c3cccn(Cc4ccc(C)cc4)c3=O)sc2c1`, with inactive: -3.71%; and `ClCCN1CCCC1`, with inactive: -6.14%; and `CCCCCCCCCCCCCC(=O)O[C@@H]1[C@@H](C)[C@@]2(O)[C@@H](C=C(CO)C[C@@]3(O)C(=O)C(C)=C[C@@H]23)C2C(C)(C)[C@@]21OC(C)=O` (stereo partly drawn), with inactive: -57.3%. Consider `N[C@@H](Cc1ccc(Oc2cc(I)c(O)c(I)c2)c(I)c1)C(=O)O`, for which the activation was inactive: 5.18%.

Turning to `CC(C)NC(C)C`, the activation was inactive: 9.56%.

With `NC(=O)CN1CCCC1=O`, the activation is inactive: -24.4% and inactive: -10.9%. Then `O=c1[nH]c2ccccc2n1C1CCNCC1`, with inactive: -10.4%. Then `Cc1ccc(OCC(=O)Nc2ccc(Cl)cc2C(=O)c2ccccc2)c(Br)c1`, with inactive: -11.3%; and `O=P1(NCCCl)OCCCN1CCCl` (stereo not drawn), with inactive: 6.78%. Then `CCc1ccc(-n2nc(C)c3c2NC(=O)CSC3c2ccccc2C)cc1` (stereo not drawn), with inactive: 16.5%; and `O=S(=O)(c1ccc(Cl)cc1)c1ccc(Cl)cc1`, with inactive: 21.6%; and `COC(=O)C(Cl)C(=O)OC`, with inactive: 3.43%. `CC(C)c1c(CN(C)C(C)Cc2ccccc2)n(C)n(-c2ccccc2)c1=O` (stereo not drawn): the activation was inactive: -23.5%. For `COc1ccc(NC(=O)CN2C(=O)C(C)N=C(c3ccccc3)c3ccccc32)cc1OC` (stereo not drawn) the value was inactive: -12.2%; for `Cc1ccc(Cn2cccc(C(=O)Nc3nc4ccc(C)cc4s3)c2=O)cc1`, inactive: 12.6%; for `N#CCCN`, inactive: 5.71%.
